The supplement of paper PMC11417369
Some of the results follow.

The sequences below were run on PfSIP2 AP2 domain 1 (GST-tagged) (assay: gcPBM binding intensity (ln(normalized median fluorescence intensity)); higher = stronger DNA binding).
Outline: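 In this array assay, P. falciparum DNA-binding domains with a GST tag, expressed in E. coli, were applied for 1 h to primer-extended double-stranded 36-bp intergenic genomic probes and negative controls on an Agilent 4 × 180k array. Bound protein was visualised with Alexa488 anti-GST antibody at 488 nm. Binding intensity is the highest Masliner-normalised natural-log median intensity across replicate spots of either probe orientation.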

Compared with “AAATATTCATAGTATACACACATTTATTTATAACCA [CACACA_site6502]”, “TAAAAGTATTCCTTTTGTACATATAATGAAAACAAT [XGTACX_site2069]” is lower in “gcPBM binding intensity (ln)” value: 6.9 for the first, 6.8 for the second.

Compared with “CTGTTTTTACTAAGTTGTACAAATGATGATACCCTA [XGTACX_site630]”, “ATACAATAATATAAATGTACAAATTATATCTTAATT [XGTACX_site6004]” is lower in “gcPBM binding intensity (ln)” value: 7.58 for the first, 6.98 for the second.

Going from “CTATATTTTTAAAAATGTACTTTATAATAAAATACT [XGTACX_site3593]” to “ATTTAAAATAGAAGTTATATTTATATGGGTGAAAAA [GTGCAC_negctrl_site296]”, the “gcPBM binding intensity (ln)” value falls from 7.15 to 6.97.

First: GGAATAACCGGACACACACACACATATATATATATA [CACACA_site5874]
Second: TTATTCATACAATATCGTACATATATATATATATAT [XGTACX_site1185]
The “gcPBM binding intensity (ln)” value of the first is lower: 9.37 for the first, 9.59 for the second.

First: TCTAATCTGGAGAAAAGTACATAGTATCTGGTAACA [XGTACX_site2540]
Second: ATTATATATATATATACACACACATATATATATATA [CACACA_site8373]
The “gcPBM binding intensity (ln)” value of the first is lower: 6.81 for the first, 9.52 for the second.

Compared with “GTACACCTATAATATACACACAACAAATATGCACAT [CACACA_site6603]”, “ATCTTATATATATGTGTGCACGTATATATAAGCAAT [GTGCAC_site9933]” is higher in “gcPBM binding intensity (ln)” value: 8.84 for the first, 9.5 for the second.

Going from TTATAAATAAAAAGAGTGCAATTATAAATATATATA to “AAAAAAATACAAATATGTACACATATATATTTAAAA [XGTACX_site4729]”, the “gcPBM binding intensity (ln)” value falls from 8.97 to 6.9.

Going from “AAATAAAATATGAACAGTACTTTTGATATAACCATT [XGTACX_site1873]” to “TACACGCATAAACACACACACACACCCATATATATA [CACACA_site8114]”, the “gcPBM binding intensity (ln)” value rises from 6.9 to 7.6.

Going from “TTTATATTTAAAGAAACATGCATTTATCATATATAC [TGCATGCA_site173]” to “CAATTTATAAAGAAAACACACATATACCTATATACA [CACACA_site6710]”, the “gcPBM binding intensity (ln)” value falls from 7 to 6.84.

First: TCTATAATATTTTTCACACACCATTTCCTTAAACAC [CACACA_site6747]
Second: TTTGTTGACGAACACACACACATACATATTTATATA [CACACA_site7141]
The “gcPBM binding intensity (ln)” value of the first is higher: 7.26 for the first, 7.18 for the second.

Going from “AAAAAAATAAAATACAAAATGGCTATACAAAATAAA [GTGCAC_negctrl_site535]” to “ATTTTTTTATTTTGAAGTACATAAACTTTATATATA [XGTACX_site1746]”, the “gcPBM binding intensity (ln)” value rises from 6.93 to 7.54.

Compared with “ATTACATATGTCGCTTGTACGCATAATTTTTTTATA [XGTACX_site5782]”, “ATTTAAAAAAAAAGACGTACATTTATATAGAATCCT [XGTACX_site6457]” is lower in “gcPBM binding intensity (ln)” value: 7.27 for the first, 7.04 for the second.

For “AAAAAATATACATATTGTACATTTTTTATTAACACA [XGTACX_site6415]”, the “gcPBM binding intensity (ln)” value was 7.07.
